Results as given in the supplement of paper PMC10126150.
Sequences with one replicate were seen in a single cluster, so their values are uncertain.

System: ATP
Assay: switch fluorescence ratio, 500 uM ATP over buffer (Cy3 cluster intensity, sum of 5 cycles each) (fold (ratio)); higher = stronger signal-on switching upon ATP binding; sequences stand for … in TCGTCGGCAGCGTCAGATGTGTATAAGAGACAGTTTTTTTTTTTTTTTTTTTTTTTTT…TC
Conditions: aptamer strand: ATP DNA aptamer (quencher-CACCTGGGGGAGTATTGCGGAGGAAGG + anchor), 100 nM annealed; ATP concentration: 500 uM; one replicate
Outline: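 Clusters carrying Cy3-labelled switching strands on a modified Illumina MiSeq flow-cell were annealed to 100 nM quencher-labelled ATP aptamer and imaged in selection buffer. They were imaged again after 15 min with 500 uM ATP at 22 °C, over five buffer/ATP cycles with NaOH stripping and re-annealing in between. For each cluster, the fluorescence ratio is the summed Cy3 intensity of the target cycles divided by that of the buffer cycles, averaged per switch-domain sequence. Clusters outside 100-1000 RFU were left out.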
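Note: ATP exposure 15 min at 22 °C before imaging.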

Sequence	switch fluorescence ratio
AAAAAACATT	1.03
AAAAAACCTT	0.998
AAAAACCGCG	1.22
AAAAACTTGA	1.01
AAAAACTTGG	1.08
AAAAAGCGTG	0.986
AAAAAGGCC	0.976
AAAAAGGCGG	1
AAAAAGGGAC	1.06
AAAACATCG	1.02
AAAACCCGC	1.07
AAAACGGAGC	1.48
AAAACGGGGT	0.961
AAAACGGGTT	1.05
AAAACTGGTA	0.963
AAAACTGTTG	1.02
AAAAGACATT	1.05
AAAAGAGCCT	1.05
AAAAGAGCTG	1.07
AAAAGATCAA	0.969
AAAAGGCTA	1.02
AAAAGGTCGG	0.942
AAAAGTAGTG	0.98
AAAAGTATTC	0.965
AAAAGTCCCC	0.976

Sequence	switch fluorescence ratio
AAAAGTCGCA	1.03
AAAAGTTACG	1.07
AAAATACGAT	1.33
AAAATAGGGC	1.08
AAAATATATC	1.01
AAAATGGACT	1.07
AAAATGTATA	1.2
AAAATGTTCG	1.07
AAAATTATGT	1.02
AAAATTCCTA	1.03
AAAATTCGGA	0.97
AAACACACGT	1.27
AAACACGACG	1.1
AAACACGAGA	1.05
AAACAGATTA	0.992
AAACAGTGAG	1.01
AAACAGTGCG	1.01
AAACATCTAG	1.02
AAACATTAGT	1.01
AAACCGGGTA	1.97
AAACCTGGTT	1.05
AAACGAAACA	1.08
AAACGACAGT	1.01
AAACGCACTT	1.48
AAACGCATGG	1.22

Sequence	switch fluorescence ratio
AAACGCTAGT	1.01
AAACGGAGTC	0.945
AAACGGAGTT	0.971
AAACGGGATC	0.979
AAACGGTCGC	0.996
AAACGTACA	1.71
AAACGTAT	1.06
AAACGTTGAT	0.982
AAACTAATGA	1.01
AAACTATATG	1.03
AAACTATTTA	1.06
AAACTCGTCT	1.02
AAACTGAGTC	0.975
AAACTTCATT	1.02
AAACTTCGTC	1.23
AAAGAATGAC	1.04
AAAGAATGTT	0.986
AAAGACGCCT	1.11
AAAGAGCTAT	0.986
AAAGAGGGTC	1.02
AAAGAGGTGC	1.07
AAAGATATG	0.978
AAAGATGCCA	1.02
AAAGCACTGT	1.07
AAAGCATAGC	1.06

Sequence	switch fluorescence ratio
AAAGCATTTG	1.03
AAAGCCATGT	1
AAAGCCCAAA	1.01
AAAGCCCGGC	1.01
AAAGCGAGGC	1.14
AAAGCGGGTA	0.987
AAAGCTCTCC	2.44
AAAGGAGAGA	0.995
AAAGGAGCAA	1.43
AAAGGATTC	0.998
AAAGGCGACG	0.98
AAAGGCTGAG	0.989
AAAGGCTGTG	1.13
AAAGGGACCC	0.975
AAAGGGCCTG	0.966
AAAGGGGACT	1.01
AAAGGTGAGG	0.994
AAAGGTGTAA	0.997
AAAGGTGTCA	1.06
AAAGGTGTTA	1.02
AAAGTAACGG	1.2
AAAGTAAGTT	1.02
AAAGTCCCTC	1.01
AAAGTCGAAA	0.971
AAAGTCGCAC	1.07

Sequence	switch fluorescence ratio
AAAGTGGGTC	1
AAAGTGTGAT	0.948
AAAGTTAGAC	1.04
AAAGTTAGC	0.976
AAAGTTAGCA	1
AAAGTTCTTA	0.956
AAAGTTGACT	1.01
AAAGTTGAGC	1.03
AAATAAACTA	1.03
AAATAAAGAT	1.02
AAATACGGTC	1.09
AAATAGTCTT	0.999
AAATATCAAC	1.01
AAATATCTC	0.987
AAATCACTCC	1.16
AAATCATTT	0.993
AAATCCCCAT	1.02
AAATCCTCAA	1.1
AAATCGACGC	1.51
AAATCGAGCA	1.03
AAATCGGCTT	1.02
AAATCGTGAA	1
AAATCTCCAA	0.955
AAATCTGCAA	4.25
AAATGAGGCA	0.999

Sequence	switch fluorescence ratio
AAATGATGCG	1.04
AAATGCAGGC	1.03
AAATGGCGGA	0.999
AAATGGCGTT	1.01
AAATGGGAAT	1.01
AAATGGGTT	0.999
AAATGGTAGA	1.01
AAATGGTTGA	0.969
AAATGTACGC	1.11
AAATGTGCAG	1.02
AAATGTGCGC	1.01
AAATGTGCGT	1
AAATGTGGAT	1.02
AAATTAACAA	1.03
AAATTAAGTC	1.07
AAATTCTCGT	1.03
AAATTTAGT	0.977
AAATTTGCTA	0.961
AAATTTGGA	0.973
AACAAACAGG	1.1
AACAAAGGAG	1.03
AACAAGTCCT	1.04
AACAATATTC	1.06
AACAATCATT	0.991
AACACATGAC	1.18

Sequence	switch fluorescence ratio
AACACGTCGG	1.01
AACACTGGCG	1.03
AACACTTGCT	1.05
AACAGATTCT	0.961
AACAGCTGAT	1.04
AACAGGAGTC	0.994
AACAGGGACT	0.985
AACAGGGGTA	1.01
AACAGTATTA	1.32
AACAGTCGG	1.01
AACAGTCTAT	1.01
AACAGTTTAT	1.03
AACATATTAG	1.02
AACATGGCCA	0.995
AACATTGAAG	1.01
AACCAAGGCA	1.13
AACCAAGTTC	1.03
AACCACCTTT	1.09
AACCAGAACT	1.02
AACCCCATCG	1.15
AACCCGGGG	1.03
AACCCGGTCG	1.09
AACCCGGTGT	1.17
AACCCTGCCT	1.27
AACCCTTAGT	0.995

Sequence	switch fluorescence ratio
AACCGAGCTT	1.15
AACCGCGACT	1.38
AACCGGTTAC	1.05
AACCGTCGC	1.14
AACCGTGCTA	1.09
AACCGTTACA	1.18
AACCTATTGC	1.01
AACCTGATAT	1.37
AACCTGGGAA	1.01
AACCTGTGTC	1.05
AACCTTCTCT	1.57
AACGAACTTC	0.983
AACGAATTCC	1.02
AACGAATTGG	1.01
AACGACCGGG	1.05
AACGACTAAT	1.13
AACGAGATCA	0.978
AACGATCGTC	1.01
AACGATGTGC	1.12
AACGCATATG	1.13
AACGCCGAAA	1.16
AACGCCGTAG	1.02
AACGCGGACG	1.02
AACGCGGACT	1.2
AACGCGTAAC	1.44
